# Where “and” joins values, the source holds several entries; their conditions need not be identical. Equal entries are not always repeated. Out of some 290,000 compounds screened, about 2,100 (0.72%) were called active. The shares of active, inactive and inconclusive entries below differ from those in the screen. The call rests on the fitted dose curve; in most records, active means well fitted inhibition curve with a large enough effect; inconclusive means small, poorly fitted or top-dose-only effect, or effect the other way; inactive means flat fitted curve, though single readings scatter. Potencies beside an inconclusive call are fits to weak or partial responses and may not hold up. The source holds several records for some structures; these can differ, active in one and inactive in another.
# Molecular target: Fructose-bisphosphate aldolase (Giardia intestinalis (strain ATCC 50803 / WB clone C6)) (UniProt A8B2U2)
# UniProt A8B2U2, sequence (A8B2U2 whole entry, looked up): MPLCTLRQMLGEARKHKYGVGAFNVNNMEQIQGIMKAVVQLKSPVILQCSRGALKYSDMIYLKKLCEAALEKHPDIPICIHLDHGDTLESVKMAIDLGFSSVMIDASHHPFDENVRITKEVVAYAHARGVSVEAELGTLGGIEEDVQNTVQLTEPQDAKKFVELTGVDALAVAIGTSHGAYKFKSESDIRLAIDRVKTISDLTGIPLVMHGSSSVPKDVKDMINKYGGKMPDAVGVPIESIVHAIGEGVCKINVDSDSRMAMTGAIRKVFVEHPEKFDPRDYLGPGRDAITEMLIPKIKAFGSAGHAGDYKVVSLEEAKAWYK
# Test: qHTS Assay for Inhibitors of Fructose-1,6-bisphosphate Aldolase from Giardia Lamblia; further: nearly all actives have a fitted effect of over 55% in size
# Conditions: purified Giardia FBPA; activity, negative = inhibition: at 59.6 µM (top of the series) unless noted
# Method in brief: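 40 nM FBPA preincubated 10 min at RT with compound (up to 57.5 uM final), then substrate plus GAPDH/TPI/NAD/arsenate coupling and diaphorase/resazurin added. Fluorescence read after 20 min at RT, 525/598 nm.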
# On the % scale 0 is the no-effect control and ±100 the full control effect; potency means the concentration at half of the fitted maximal effect; tags describe the fitted curve by direction and shape.
Compound,"activity, negative = inhibition",Potency
Cc1ccc2c(C)c(C(=O)N3CCCC(C(N)=O)C3)oc2c1C (stereo not given),inactive: 6.07%,
Cc1ccc(O)c(/C=N/NC(=O)C2=NNC(c3ccccc3)(c3ccccc3)C2)c1,,"inconclusive: 17.7 µM [inhibitor, partial curve]"
O=C(/C=N/NC(=O)c1ccccc1Br)c1ccccc1,,"inconclusive: 15.8 µM [inhibitor, partial curve]"
CCOC(=O)C1CCN(C(=O)Nc2ccc3nc(-c4ccco4)c(-c4ccco4)nc3c2)CC1,,"inconclusive: 1.58 µM [inhibitor, partial curve]"
COc1cc(OC)cc(C(=O)NCC(=O)OCC(=O)Nc2ncc(Cl)cc2Cl)c1,,"inconclusive: 17.7 µM [inhibitor, single point]"
CCOC(=O)C1CCCN(CCc2ccccc2)C1 (stereo not given),,"inconclusive: 14.1 µM [inhibitor, partial curve]"
COc1ccc2ccccc2c1CN(C)Cc1ccccc1,,"inconclusive: 15.8 µM [inhibitor, single point]"
Cc1ccc(CCNC(=O)CS(=O)Cc2nc(-c3cccs3)oc2C)cc1 (stereo not given),inactive: -5.39%,
Cc1cc(C)[n+](C2C3CC4CC(C3)CC2C4)o1 (stereo not given),inactive: 6.1%,
CCN(CC)c1ccc(N=Cc2cc(Br)ccc2O)cc1,,"inconclusive: 12.6 µM [inhibitor, partial curve]"
Cc1ccc(N=Cc2cccc(O)c2O)c(C)c1,,"inconclusive: 3.97 µM [inhibitor, partial curve]"
Cc1ccc2c(CN3CC(C)CC(C)C3)cc(=O)oc2c1 (stereo not given),inactive: 5.6%,
Cc1cc(NC(=O)CN(C)CCOc2ccccc2)ccc1Br,,active: 15.8 µM
COc1ccc(NC(=O)NS(=O)(=O)c2ccc(C)cc2)c(OC)c1,,"inconclusive: 7.92 µM [inhibitor, partial curve]"
O=C(NCCCN1CCOCC1)c1cc2nc(-c3ccco3)cc(C(F)(F)F)n2n1,inactive: 1.17%,
CCOC(=O)N1CCN(C(=S)NC(=O)c2ccc(F)c(F)c2)CC1,,active: 15.8 µM
NC[C@@H](O)c1ccc(O)c(O)c1,,"inconclusive: 19.9 µM [inhibitor, partial curve] and inconclusive: 7.06 µM [inhibitor, partial curve]"
CN1CCN(c2cc(-c3ccoc3)ncn2)CC1,inactive: -1.63%,
Cn1cc(/C=N/NC(N)=S)c2ccccc21,,"inconclusive: 12.6 µM [inhibitor, partial curve, poor fit]"
COc1ccccc1Oc1ccc(S(=O)(=O)NCc2ccccn2)cc1,inactive: 0.589%,
O=C(O)c1ccccc1C(=O)c1ccc(Sc2ccc(Cl)cc2)c([N+](=O)[O-])c1,,"inconclusive: 17.7 µM [activator, single point]"
O=C(N/N=C/c1ccccc1C(=O)O)c1ccc(COc2cccc3cccnc23)cc1,inactive: 7.8%,
COc1ccc(OC)c(NC(=O)CCNS(=O)(=O)c2ccc3[nH]c(=O)oc3c2)c1,,"inconclusive: 17.8 µM [inhibitor, partial curve]"
O=C(Nc1ccccn1)C1CCN(S(=O)(=O)c2cccs2)CC1,inactive: -0.665%,

Compound,"activity, negative = inhibition",Potency
Cc1ccc(-c2n[nH]c(=S)n2/N=C/c2ccc(C(=O)O)cc2)cc1,,"inconclusive: 20 µM [inhibitor, single point]"
Cc1ccsc1/C=N/NC(=O)c1cccc(S(=O)(=O)Nc2ccccc2Cl)c1,,"inconclusive: 15.8 µM [inhibitor, single point]"
O=C(Nc1ccccc1)N1CCc2ccccc2C1,,"inconclusive: 44.6 µM [inhibitor, single point]"
COC(=O)C1C(O)C(C)C(O)C(C)(O)/C=C\C=C(/C)C(=O)Nc2c(C)c(OC(C)=O)c3c(c2O)C(=O)C(C)=C2OCOC(=C23)/C(C)=C/C(C)(O)C(O)C(C)C1O (stereo not given),,"inconclusive: 1.77 µM [inhibitor, partial curve]"
Cc1ccc(-n2c(O)c(C=NCc3ccccn3)c3ccccc3c2=O)cc1,inactive: -0.106%,
CCCCN1C(=O)C(O)=C(C(C)=O)C1c1ccccc1[N+](=O)[O-] (stereo not given),,"inconclusive: 15.8 µM [inhibitor, single point]"
COc1cc(/C=N/NC(N)=S)ccc1OCC(=O)N1CCOCC1,,"inconclusive: 15.8 µM [inhibitor, single point]"
O=C(NC(=S)N1CCOCC1)c1ccc([N+](=O)[O-])cc1,,"inconclusive: 7.06 µM [inhibitor, partial curve]"
Cc1cccc(NC(=O)C2(C)CC3c4ccccc4C2c2ccccc23)c1C (stereo not given),inactive: 8.04%,
O=C(C[n+]1cc(Br)cc(Br)c1)c1cccc([N+](=O)[O-])c1,,"inconclusive: 15.8 µM [inhibitor, partial curve]"
CCN(CCCNS(=O)(=O)c1ccc2c(c1)oc(=O)n2C)c1cccc(C)c1,,"inconclusive: 7.06 µM [activator, single point]"
COc1ccc(CCN2CC(C(=O)N(C)Cc3ccccc3OC)CCC2=O)cc1 (stereo not given),,"inconclusive: 39.8 µM [activator, single point]"
CCOCCCNC(=O)/C(C#N)=C/c1ccc([N+](=O)[O-])o1,,"inconclusive: 2.81 µM [inhibitor, partial curve]"
Cc1ccc(S(=O)(=O)Nc2ncccn2)cc1,,active: 22.4 µM
O=[N+]([O-])c1ccc(O)c(N=Cc2sc3ccccc3c2O)c1,,"inconclusive: 15.8 µM [inhibitor, partial curve]"
COc1ccc(OC)c(NC(=O)CSc2nncc(=O)n2N)c1,,"inconclusive: 22.4 µM [inhibitor, partial curve]"
Oc1cc2c(cc1O)CN(C(=S)NCCc1ccc(Cl)cc1)CCC2,,"inconclusive: 25.1 µM [inhibitor, partial curve]"
COc1ccc(Oc2cc(F)nc(N)n2)cc1,inactive: -0.13%,
CC(=O)Oc1ccc(N(C(C)=O)S(=O)(=O)c2ccc(C)cc2C)c2ccccc12,inactive: 1.51%,
COc1ccc(C(=O)CSc2nccn2C)cc1,,"inconclusive: 28.2 µM [inhibitor, single point]"
CCCNC1=C(C)C(=O)C2=C(C1=O)C(COC(N)=O)[C@]1(OC)C3NC3CN21 (stereo not given in full),,"inconclusive: 11.2 µM [inhibitor, partial curve]"
COc1ccc(N2CCN(CC(O)COC(C)(C)C)CC2)cc1 (stereo not given),,"inconclusive: 14.1 µM [inhibitor, partial curve]"
O=C(COc1ccccc1Br)NC1CCCC1,inactive: 4.92%,
COC(=O)C/C=C\[C@H](C)[C@@H](OCc1ccccc1Br)C(C)C,inactive: 1.31% [at 12.9 µM],

Compound,"activity, negative = inhibition",Potency
Cc1cccc(C(=O)NNC(=O)c2ccccc2O)c1,,"inconclusive: 3.16 µM [inhibitor, full curve]"
COc1ccc(C(=O)NC(=S)NNC(=O)CCc2ccccc2)cc1,,"inconclusive: 17.7 µM [activator, single point]"
CCn1c(=O)c(-[n+]2ccccc2)c(O)c2ccccc21,,"inconclusive: 28.2 µM [inhibitor, single point]"
COc1cc(-c2nc(C(=O)NCC3CCCO3)cc3c2[nH]c2ccccc23)cc(OC)c1OC (stereo not given),,active: 8.91 µM
Cc1ccccc1Cn1nc(C)c(NC(=O)c2noc3c2CC(C(C)(C)C)CC3)c1C (stereo not given),inactive: -4.32%,
CCOc1ccc(-c2csc(NNC3=NCCCCC3)n2)cc1,,"inconclusive: 8.89 µM [inhibitor, partial curve]"
Cc1nc(C(=O)NNC(=O)c2ccccc2)c(C(F)(F)F)o1,,"inconclusive: 15.8 µM [inhibitor, partial curve]"
Cc1coc2c1C(=O)C(=O)c1c-2ccc2c1CCCC2(C)C,,active: 17.7 µM
O=[N+]([O-])c1cccc(-c2nnc(-c3ccc4c(c3)OCO4)o2)c1,inactive: -3.75%,
Cn1c(/N=C/c2c(O)ccc3ccccc23)nc2ccccc21,,active: 0.706 µM
O=[N+]([O-])c1ccc(CN2CCN(Cc3c[nH]c4ccccc34)CC2)cc1,,"inconclusive: 17.7 µM [inhibitor, partial curve]"
Cc1ccc2nsnc2c1NS(=O)(=O)c1c(C)ccc2nsnc12,,"inconclusive: 17.7 µM [inhibitor, partial curve]"
Cc1cc2c(nc1C)CCCCN2C[C@H](C)O/N=C1/[C@H]2O[C@@H]2[C@@H](O)[C@H]2[C@H]1CCn1c(=O)n(-c3ccccc3)c(=O)n12,inactive: -0.23% [at 12.9 µM],
CCCCN1CCc2[nH]c(=S)[nH]c(=O)c2C1,,active: 15.8 µM
O=C(Oc1ccc2ccc(O)cc2c1)C1CCCCC1,,"inconclusive: 15.8 µM [inhibitor, single point]"
COc1ccc(C(C#N)N2N=C(C)CC2c2ccccc2)cc1OC (stereo not given),,"inconclusive: 31.6 µM [inhibitor, single point]"
CCCCC(=O)NC(c1ccccc1)c1ccc2cccnc2c1O (stereo not given),,"inconclusive: 31.6 µM [activator, single point]"
CCOC(=O)C1=C(O)c2ccccc2C(=O)/C1=C\c1ccc(C)cc1,,"inconclusive: 3.54 µM [inhibitor, partial curve]"
COc1ccc2c(C(=O)CN3CCN(c4ccccc4)CC3)c[nH]c2c1,inactive: 1.14%,
O=C(O)c1ccc(Cl)c(S(=O)(=O)Nc2ccc3cn[nH]c3c2)c1,,"inconclusive: 5.61 µM [inhibitor, full curve]"
CN(c1ccccc1)S(=O)(=O)c1cccc(C(=O)Nc2nn[nH]n2)c1,,"inconclusive: 15.8 µM [inhibitor, single point]"
COc1ccccc1N1CCN(C(=O)C2CCN(S(=O)(=O)N3CCOCC3)CC2)CC1,,"inconclusive: 6.29 µM [inhibitor, single point]"
